Data reported in the supplement of paper PMC11876631.
± gives the standard deviation of the averaged measurements. Laboratory Escherichia coli strains with one amino-acid change in an essential protein, pooled on minimal glucose agar with carbenicillin or gentamicin at twice the control MIC (plus kanamycin and chloramphenicol for the plasmids), 48 h. Fold change of barcode share against drug-free plates; higher = less susceptible. Active = above 20 in both replicates (the paper's putatively resistant). '<' = one read or none on drug, '>' = one read or none on a drug-free plate. Shares are relative, so most strains fall below 1 when a few take over. Listed are strains with at least 15 reads on both drug-free plates, and hits; most hits rest on fewer reference reads. Replicate rank correlation about 0.5. Edits are read from barcodes.

B1: leuB; numbered along this chain (parent)
chain: MSKNYHIAVLPGDGIGPEVMTQALKVLDAVRNRFAMRITTSHYDVGGAAIDNHGQPLPPATVEGCEQADAVLFGSVGGPKWEHLPPDQQPERGALLPLRKHFKLFSNLRPAKLYQGLEAFCPLRADIAANGFDILCVRELTGGIYFGQPKGREGSGQYEKAFDTEVYHRFEIERIARIAFESARKRRHKVTSIDKANVLQSSILWREIVNEIATEYPDVELAHMYIDNATMQLIKDPSQFDVLLCSNLFGDILSDECAMITGSMGMLPSASLNEQGFGLYEPAGGSAPDIAGKNIANPIAQILSLALLLRYSLDADDAACAIERAINRALEEGIRTGDLARGAAAVSTDEMGDIIARYVAEGV

Variants of: B1
Assay: barcode share on antibiotic plates over drug-free plates; higher = less susceptible
Conditions: with Escherichia coli (laboratory strain); antibiotic: carbenicillin; 2× MIC (3.1 µg/mL)
Description: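 A pool of E. coli strains, each edited to carry one amino-acid change in an essential protein, was grown for 48 h on minimal glucose agar with or without antibiotic; strain barcodes were sequenced; mean of two replicates.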

Row | Variant | fold change of barcode share
1 | L72Q | 0.764 ± 0.31
2 | L72W | 0.397 ± 0.085
3 | L10D | 9.74 ± 4
4 | L10A | 0.527 ± 0.024
5 | L10P | 23.6 ± 11
6 | L10Q | 0.777 ± 0.18
7 | W205A | 0.712 ± 0.19
8 | W205Q | 0.526 ± 0.29
9 | L308Q | 0.442 ± 0.14
10 | L308A | 0.432 ± 0.07
11 | L309A | 0.748 ± 0.074
12 | L309W | 0.648 ± 0.033
13 | L309Q | 0.404 ± 0.11
14 | F73Q | 0.499 ± 0.23
15 | F73W | 0.399 ± 0.12
16 | F73A | 0.656 ± 0.11
17 | I134W | 0.61 ± 0.051

Same assay, conditions: with Escherichia coli (laboratory strain); antibiotic: gentamicin; 2× MIC (MIC 0.45 µg/mL)

Row | Variant | fold change of barcode share
18 | L72Q | 0.0246 ± 0.0085
19 | L72W | 0.0159 ± 0.01
20 | L10A | 0.00703 ± 0.00016
21 | L10Q | 0.0123 ± 0.0095
22 | W205Q | 0.0139 ± 0.0095
23 | L308P | < 0.0188
24 | L308Q | < 0.00694
25 | L308A | < 0.0138
26 | L309A | < 0.0132
27 | L309W | 0.0148 ± 0.0076
28 | L309Q | < 0.00702
29 | F73Q | 0.00801 ± 0.0033
30 | F73W | 0.0102 ± 0.0028
31 | F73A | 0.0141 ± 0.0051
32 | I134W | 0.0162 ± 0.0069
